{
  "source": "PubChem BioAssay AID588855",
  "about": "(National Center for Advancing Translational Sciences (NCATS), 2011)",
  "note": "Among all 410,000 compounds or so, about 5,000 (1.2%) were called active. The inconclusive results got no clear call from the source; some entries with a clear call stand among them for comparison. The call rests on the fitted dose curve; in most records, active means well fitted inhibition curve with a large enough effect; inconclusive means small, poorly fitted or top-dose-only effect; inactive means no such curve, though single readings can be large or run the other way. Potencies of inconclusive entries are doubtful fits and often do not repeat. On the % scale 0 is the no-effect control and ±100 the full control effect; potency means the concentration at half of the fitted maximal effect; tags describe the fitted curve by direction and shape.",
  "data": [
    {"assay": "qHTS for Inhibitors of TGF-b; further: nearly all actives have a fitted effect of over 65% in size", "conditions": "HepG2 CAGA-GFP TGF-b/SMAD3 reporter, GFP fluorescence, 18 h, TGF-beta stimulated, 500 pg/mL final; series mostly up to 46.1 µM; activity, negative = inhibition: at the top concentration", "in_short": "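Using HEPG2 CAGA-GFP reporter cells at 1000 cells/well, we pinned test compounds, stimulated with recombinant TGF-beta (500 pg/mL final) and measured total well GFP after 18 h.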", "values": [
      {"smiles": "CCOC(=O)c1c(-c2ccccc2)csc1NC(=O)c1nc(S(=O)(=O)CC)ncc1Cl", "Potency": "inconclusive: 1.58 µM [inhibitor, full curve, poor fit]"},
      {"smiles": "CCC(=O)Nc1ccc(S(=O)(=O)NCc2ccc3c(c2)CCN3C(=O)c2ccc(C)cc2)cc1", "Potency": "inconclusive: 8.91 µM [inhibitor, partial curve]"},
      {"smiles": "COc1ccccc1/C=C/C(=O)c1ccc(Cl)cc1", "Potency": "inconclusive: 35.5 µM [inhibitor, single point]"},
      {"smiles": "C/C(=C\\c1ccco1)C1C(C#N)=C(N)OC2=C1C(=O)CC(C)(C)C2", "note": "(stereo not given)", "Potency": "inconclusive: 0.112 µM [inhibitor, full curve, poor fit]"},
      {"smiles": "CCCCn1c(NC(=S)Nc2ccccc2)nc2ccccc21", "Potency": "active: 12.6 µM"},
      {"smiles": "Cc1oc(-c2ccccc2)nc1Cn1cccc1C1=NC(c2ccccc2)CO1", "note": "(stereo not given)", "Potency": "inconclusive: 11.2 µM [inhibitor, partial curve]"},
      {"smiles": "COC(=O)NNC(=O)c1ccc(Cl)cc1Cl", "activity, negative = inhibition": "inactive: 1.16%"},
      {"smiles": "COc1ccc(OC)c(NC(=O)CN2C(=O)c3ccccc3Sc3ccc(C(=O)N4CCCC4)cc32)c1", "Potency": "inconclusive: 35.5 µM [inhibitor, single point]"},
      {"smiles": "COc1ccc(C(=O)c2sc(Nc3cccc(OC)c3)c(C(=O)Nc3cccc(C)c3C)c2N)cc1", "Potency": "inconclusive: 35.5 µM [inhibitor, single point]"},
      {"smiles": "CC(C)Cc1ccc(CN2CCCC(NC(=O)c3nn(C)c(=O)c4ccccc34)C2)cc1", "note": "(stereo not given)", "Potency": "inconclusive: 7.08 µM [inhibitor, full curve]"},
      {"smiles": "CCN(CC)S(=O)(=O)c1cc(OC)ccc1N=Nc1ccc(O)c2ncccc12", "Potency": "inconclusive: 7.08 µM [inhibitor, partial curve]"},
      {"smiles": "CCCCc1ccc(NC(=O)CN2C(=O)C3CCCCC3C2=O)cc1", "note": "(stereo not given)", "activity, negative = inhibition": "inactive: -1.56%"},
      {"smiles": "COc1cc(/C=C2\\S/C(=N/S(=O)(=O)c3ccccc3)NC2=O)c([N+](=O)[O-])cc1OC", "Potency": "inconclusive: 6.31 µM [inhibitor, single point]"},
      {"smiles": "COc1cc(/C=N/n2cnc3c(sc4nc(C)cc(C)c43)c2=O)ccc1O", "activity, negative = inhibition": "inactive: 2.04%"},
      {"smiles": "COc1cccc(CNCC(O)(c2ccc(Cl)cc2)c2ccc(Cl)cc2)c1", "Potency": "inconclusive: 35.5 µM [inhibitor, partial curve, poor fit]"},
      {"smiles": "COc1cc(SC)ccc1C(=O)Nc1ccc(C)cc1", "activity, negative = inhibition": "inactive: -5.69%"},
      {"smiles": "CCOC(=O)c1ccc(N2C(=O)c3n[nH]c(-c4cccs4)c3C2c2ccc(C(C)C)cc2)cc1", "note": "(stereo not given)", "Potency": "inconclusive: 3.55 µM [inhibitor, single point]"},
      {"smiles": "COc1ccc(CC(=O)NCc2ccc3c(c2)CCN3C(=O)c2ccc(Cl)cc2)cc1OC", "Potency": "inconclusive: 35.5 µM [inhibitor, single point]"},
      {"smiles": "CCN(c1ccccc1)S(=O)(=O)c1ccc2c(c1)CC(C)N2C(=O)C1CC1", "note": "(stereo not given)", "Potency": "inconclusive: 15.8 µM [inhibitor, partial curve, poor fit]"},
      {"smiles": "Cn1c(=O)c2cc(NC(=O)NCc3ccc(Cl)cc3Cl)ccc2n1Cc1ccc(F)cc1", "Potency": "inconclusive: 14.1 µM [inhibitor, partial curve, poor fit]"},
      {"smiles": "O=S(=O)(c1ccccc1)N1CCC2(CC1)CO2", "activity, negative = inhibition": "inactive: 1.8%"},
      {"smiles": "COc1ccccc1NS(=O)(=O)c1cc(NC(=O)c2cccs2)ccc1N1CCCCC1", "Potency": "inconclusive: 17.8 µM [inhibitor, partial curve, poor fit]"},
      {"smiles": "c1ccc(-c2csc(Nc3ccccn3)n2)cc1", "activity, negative = inhibition": "inactive: -15.4%"},
      {"smiles": "COC(=O)C1=C(C(=O)OC)[C@@H]2N(C)c3ccccc3[C@@]23C[C@@H](C(=O)OC)N(C(=O)c2ccco2)C3=N1", "Potency": "inconclusive: 10 µM [inhibitor, single point]"},
      {"smiles": "O=C(Cn1nc(Cc2cccnc2)c2ccccc2c1=O)Nc1ccc2c(c1)OCO2", "activity, negative = inhibition": "inactive: -2.81%"},
      {"smiles": "CC12CCC(=O)N1C(C(=O)NNC(=O)c1ccccc1)CS2", "note": "(stereo not given)", "Potency": "inconclusive: 6.31 µM [inhibitor, single point]"},
      {"smiles": "Cc1csc(-c2ccc3cc(Cl)cc(Cl)c3n2)n1", "activity, negative = inhibition": "inactive: -17.6%"},
      {"smiles": "COc1ccccc1-c1cc(C(F)(F)F)nc(S(=O)(=O)CCCC(=O)Nc2cc(OC)c(OC)c(OC)c2)n1", "activity, negative = inhibition": "inactive: 2.13%"},
      {"smiles": "COc1ccc(S(=O)(=O)N2Cc3ccccc3CC2C(=O)N2CCOCC2)cc1OC", "note": "(stereo not given)", "Potency": "inconclusive: 2.82 µM [inhibitor, partial curve, poor fit]"},
      {"smiles": "C/C(N)=C(/C#N)C(=O)CSc1nnnn1-c1ccc(C)cc1", "activity, negative = inhibition": "inactive: -29%"},
      {"smiles": "C=CC[C@@H](CC(=O)N(CCO)Cc1ccccc1)C(=O)N[C@H](COC(=O)[C@@H](CC=C)Cc1ccc(F)cc1)Cc1ccccc1", "Potency": "inconclusive: 12.6 µM [inhibitor, single point]"},
      {"smiles": "O=C(CNC(=O)c1nc[nH]c1C(=O)N1CCNCC1)OCc1ccccc1", "Potency": "inconclusive: 11.2 µM [inhibitor, partial curve, poor fit]"},
      {"smiles": "COc1ccc(CNCCC(c2ccccc2)c2ccc(OC(C)C)cc2)cc1OC", "note": "(stereo not given)", "Potency": "inconclusive: 28.2 µM [inhibitor, single point]"},
      {"smiles": "CCCCOc1ccc(Nc2cc(Cl)ccc2C(=O)O)cn1", "Potency": "inconclusive: 17.8 µM [inhibitor, single point]"},
      {"smiles": "Cc1ccc(S(=O)(=O)N2[C@@H](c3ccc(F)cc3)C(C(=O)O)=CC[C@H]2c2cccs2)cc1", "Potency": "inconclusive: 1.12 µM [inhibitor, partial curve]"},
      {"smiles": "O=C(c1ccc2oc(CCCc3ccccc3)nc2c1)N1CCCC(CCCO)C1", "note": "(stereo not given)", "Potency": "inconclusive: 15.8 µM [inhibitor, single point]"},
      {"smiles": "Cc1ccc(S(=O)(=O)N2CCC(C(=O)Nc3ccc(S(=O)(=O)N4CCOCC4)cc3)CC2)cc1", "Potency": "inconclusive: 35.5 µM [inhibitor, single point]"},
      {"smiles": "Cc1ccc(CNS(=O)(=O)c2cc(C(=O)Nc3cccc(C(F)(F)F)c3)ccc2F)cc1", "Potency": "inconclusive: 22.4 µM [inhibitor, single point]"},
      {"smiles": "COc1ccc(C(=O)NNC2=C(C(=O)C(F)(F)F)CCC2)cc1", "Potency": "active: 8.91 µM"},
      {"smiles": "Cc1cc(Oc2ccc(C)c(Cl)c2)nc(SCC(=O)c2ccccc2)n1", "Potency": "inconclusive: 35.5 µM [inhibitor, single point]"}
    ]}
  ]
}
